Assay results taken from PubChem BioAssay AID624173 (National Center for Advancing Translational Sciences (NCATS), 2012).
The whole screen tested about 410,000 compounds, of which about 490 (0.12%) were called active. Inconclusive results, whose numbers are uncertain, are shown with a selection of clear calls. Calls follow the shape of the dose curve; as a rule, active = well fitted inhibition curve with a large enough effect; inconclusive = small, poorly fitted or top-dose-only effect; inactive = flat fitted curve, though single readings scatter. Where the call is inconclusive, the potency comes from a doubtful curve fit.

Each compound was assayed against pyruvate kinase (Trypanosoma brucei) (UniProt Q57TT1) (assay: qHTS of Trypanosoma Brucei Inhibitors). Details: TbPYK enzyme, Kinase-Glo Plus ATP luminescence, 45 min; series mostly up to 76.8 µM; activity, negative = inhibition: at the top concentration.
Procedure, shortened: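 Screened from lowest to highest concentration, compounds were pinned into TbPYK/substrate mixtures, and ADP (130 uM final) was added. Plates sat at room temperature for 45 min prior to Kinase-Glo Plus detection by luminescence.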
% is scaled to controls: 0 for no effect and ±100 for the full control effect; potency is read from the fitted curve at half-maximal effect; tags tell the direction and shape of the fitted curve.
Also: nearly all actives have a fitted effect of over 50% in size.

SMILES	activity, negative = inhibition	Potency
CCOC(=O)N1CCC(NC(=O)c2ccc3c(c2)N(Cc2ccc(F)cc2)C(=O)c2ccccc2S3=O)CC1 (stereo unspecified)	inactive: -16%	
O=C(Cc1ccccc1)Nc1nc2ccccc2s1	inactive: 3.39%	
Cc1ccc(SCc2nc(-c3ccncc3)no2)cc1		inconclusive: 50.1 µM [inhibitor, single point]
CN(C)CCNc1nc(-c2ccco2)c2c(c1C#N)CC(C)(C)OC2	inactive: 3.54%	
O=C(NCCCN1CCOCC1)c1sc2cc([N+](=O)[O-])ccc2c1Cl		inconclusive: 11.2 µM [inhibitor, partial curve, poor fit]
CC1(C)Cc2c(cnn2-c2ccc(F)cc2)C(NC(=O)C2=NNC(=O)CC2)C1 (stereo unspecified)		inconclusive: 39.8 µM [inhibitor, single point]
COc1ccccc1-c1cn(-c2ccccc2)c(=S)[nH]1		inconclusive: 1.12 µM [inhibitor, full curve, poor fit]
CC1(C)N=C(N)N=C(N)N1c1cccc(C#N)c1	inactive: -5.44%	
CCn1c(-c2nn(-c3ccccc3)ccc2=O)n[nH]c1=S		inconclusive: 39.8 µM [inhibitor, partial curve]
COC(=O)c1ccc(NC(=S)NC2CC2)cc1	inactive: 4.16%	
Cc1ccc(-c2noc(-c3ccc(NC4CCCC4)c([N+](=O)[O-])c3)n2)cc1		inconclusive: 50.1 µM [inhibitor, single point]
CN1CCN(c2nc(-c3ccc(Cl)s3)cs2)CC1		inconclusive: 12.6 µM [inhibitor, partial curve, poor fit]
S=c1[nH]nc(COc2ccc3ccccc3c2)o1		inconclusive: 5.01 µM [inhibitor, full curve]
O=C(O)c1cccc(N2C(=O)C=CC2=O)c1		inconclusive: 14.1 µM [inhibitor, partial curve, poor fit]
C[C@@H]1CN([C@H](C)CO)C(=O)c2c(c3ccccc3n2C)-c2ccccc2CO[C@H]1CN(C)Cc1cccc(C(=O)O)c1	inactive: 12.4%	
COc1ccccc1NS(=O)(=O)c1cc(NC(=O)c2cccs2)ccc1N1CCCC1		inconclusive: 25.1 µM [inhibitor, partial curve]
O=C(O)Cc1sc(Nc2ccccc2)nc1-c1cccs1	inactive: -17.9%	
S=c1[nH]nc(CN2CCCC2)n1Cc1ccccc1		inconclusive: 25.1 µM [inhibitor, partial curve]
O=c1c2ccccc2sn1-c1cc(S(=O)(=O)N2CCOCC2)ccc1N1CCCC1		inconclusive: 5.01 µM [inhibitor, full curve, poor fit]
Cc1cc(-c2n[nH]c(=S)n2Cc2ccco2)nn1C		inconclusive: 12.6 µM [inhibitor, partial curve]
COc1cccc(C2CC(c3c(F)cccc3Cl)n3nc(N)nc3N2)c1 (stereo unspecified)	inactive: -9.68%	
CC(C)C1=Nc2cccc3cccc(c23)N1		inconclusive: 11.2 µM [inhibitor, partial curve]
Cc1ccc(SCc2c(C#N)c3ccccc3n2C)cc1		inconclusive: 50.1 µM [inhibitor, single point]

SMILES	activity, negative = inhibition	Potency
COc1ccc(Cl)cc1-c1n[nH]c(=S)n1Cc1ccccc1		inconclusive: 5.62 µM [inhibitor, partial curve, poor fit]
C=CS(=O)c1sc(Cl)c(N2CCOCC2)c1[N+](=O)[O-] (stereo unspecified)		inconclusive: 35.5 µM [inhibitor, single point]
CCOc1cc(Cn2c(-c3ccc(O)c(OCC)c3)nc3ccccc32)ccc1O	inactive: -1.23%	
O=[N+]([O-])c1ccc(N(CCO)CCO)c2c1no[n+]2[O-]	inactive: -22.6%	
CC(C)Cn1c(-c2ccncc2)n[nH]c1=S		inconclusive: 20 µM [inhibitor, single point]
O=C(O)CC1(CC(=O)Nc2cccc(C(=O)O)c2)CCCC1	inactive: 0.331%	
COc1ccc(CCNC(=O)COc2cc(C)cc3oc(=O)cc(C)c23)cc1OC	inactive: 4.5%	
Cn1c(=O)c2sccc2n2c(CCCC(=O)Nc3ccc(Cl)cc3)nnc12	inactive: -6.77%	
Cc1sc2nc(CN3CCOCC3)[nH]c(=S)c2c1C		inconclusive: 28.2 µM [inhibitor, partial curve, poor fit]
Cc1ccccc1-n1c(-c2ccc(Br)o2)n[nH]c1=S		inconclusive: 7.08 µM [inhibitor, partial curve]
CCOC(=O)c1sc(NC(=O)c2cccc(S(=O)(=O)N3CCc4ccccc43)c2)c(C#N)c1C		inconclusive: 10 µM [inhibitor, partial curve]
O=C1C(=Cc2cccc(O)c2O)SC(=S)N1CCCN1CCOCC1		inconclusive: 12.6 µM [inhibitor, partial curve, poor fit]
O=C1NC(=O)N(Cc2ccc(F)cc2)C(=O)/C1=C\c1ccc([N+](=O)[O-])s1		inconclusive: 22.4 µM [inhibitor, partial curve, poor fit]
CC(=O)n1cc(C(C[N+](=O)[O-])SCCN)c2ccccc21 (stereo unspecified)		inconclusive: 31.6 µM [inhibitor, partial curve]
CCc1ccc(C2=CC(c3cccc(C)c3)n3c(nc4ccccc43)N2)cc1 (stereo unspecified)	inactive: 2.22%	
Cc1ccc(-c2nc(N)s[n+]2-c2ccccc2)cc1		inconclusive: 5.62 µM [inhibitor, full curve, poor fit]
Cc1cccc(C(=O)NC(=S)NNC(=O)Cc2ccccc2)c1		inconclusive: 31.6 µM [inhibitor, partial curve, poor fit]
N#Cc1c2n(c3c(=S)nc[nH]c13)CCCCC2		inconclusive: 35.5 µM [inhibitor, single point]
FC(F)(F)c1ccccc1-n1c(-c2ccco2)n[nH]c1=S		inconclusive: 4.47 µM [inhibitor, partial curve]
COCCCn1c2nc3ccccc3nc2c2c(=O)n(-c3ccccc3OC)cnc21	inactive: -1.18%	
Cc1c(CC(=O)O)c(=O)oc2cc3c(cc12)CCC(C)(C)O3	inactive: 0%	
Cc1c(C#N)c(O)n(C)c(=O)c1N=Nc1ccc(S(N)(=O)=O)cc1	inactive: -3.82%	
CCN(CC)S(=O)(=O)c1cccc(-c2n[nH]c(=S)n2/N=C/c2ccc(OC)cc2)c1		inconclusive: 12.6 µM [inhibitor, partial curve, poor fit]
